This is one part of the list. The list includes weakly bound sequences.

We go through 18 sequences from PMC12820563.

In this test the target is T1, MBP-FoxP3dN (UniProt Q99JB6).
T1 sequence: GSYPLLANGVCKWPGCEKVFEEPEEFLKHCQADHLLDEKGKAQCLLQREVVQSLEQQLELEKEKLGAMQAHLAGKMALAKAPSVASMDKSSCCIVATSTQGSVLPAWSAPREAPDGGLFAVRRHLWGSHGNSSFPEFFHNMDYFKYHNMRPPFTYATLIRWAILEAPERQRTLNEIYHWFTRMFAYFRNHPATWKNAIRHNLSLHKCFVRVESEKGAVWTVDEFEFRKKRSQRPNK
Kind of test: PD-seq (MBP pull-down with sequencing). The following applies: 20 mM Tris-HCl pH 7.5, 100 mM NaCl, 1.5 mM MgCl2, 0.4 uM protein, 0.1 uM dsDNA library, 30 min, room temperature, amylose pull-down; high values mean tight binding; double strand, one strand shown.
As for “GATGATTGTTCTCCCAGCTGATGAATTACGTGAGTCGAGTAAACAAATTTTCCTAATCTTTCTGTTCAAGCGCCATCTAC”, the binding signal (RPM ratio (pull-down/input)) turned out to be 0.542.
“GATGATTGTTCTCCCAGCTGATGAATTCCTGTCTTCGAGTAAACAAATTTTCCTAATCTTTCTGTTCAAGCGCCATCTAC”: the binding signal (RPM ratio (pull-down/input)) is 0.333.
As for “GATGATTGTTCTCCCAGCTGATGAATTTTAACCTTCGAGTAAACAAATTTTCCTAATCTTTCTGTTCAAGCGCCATCTAC”, the figure is 0.272.
The same measure for “GATGATTGTTCTCCCAGCTGATGAATTGGCGGATTCGAGTAAACAAATTTTCCTAATCTTTCTGTTCAAGCGCCATCTAC”: 0.344.
Turning to “GATGATTGTTCTCCCAGCTGATGAATTGTGGATCTCGAGTAAACAAATTTTCCTAATCTTTCTGTTCAAGCGCCATCTAC”, the binding signal (RPM ratio (pull-down/input)) was 0.687.
For “GATGATTGTTCTCCCAGCTGATGAATTGGAATGATCGAGTAAACAAATTTTCCTAATCTTTCTGTTCAAGCGCCATCTAC”, the binding signal (RPM ratio (pull-down/input)) is 0.358.
The same measure for “GATGATTGTTCTCCCAGCTGATGAATTAACTGGTTCGAGTAAACAAATTTTCCTAATCTTTCTGTTCAAGCGCCATCTAC”: 0.341.
Regarding “GATGATTGTTCTCCCAGCTGATGAATTTCCTGCTTCGAGTAAACAAATTTTCCTAATCTTTCTGTTCAAGCGCCATCTAC”, the binding signal (RPM ratio (pull-down/input)) came to 0.253.
As for “GATGATTGTTCTCCCAGCTGATGAATTATCTCCCTCGAGTAAACAAATTTTCCTAATCTTTCTGTTCAAGCGCCATCTAC”, the figure is 0.252; as for “GATGATTGTTCTCCCAGCTGATGAATTCTCGCACTCGAGTAAACAAATTTTCCTAATCTTTCTGTTCAAGCGCCATCTAC”, 0.545.
For the sequence “GATGATTGTTCTCCCAGCTGATGAATTTGTGTCCTCGAGTAAACAAATTTTCCTAATCTTTCTGTTCAAGCGCCATCTAC”, the binding signal (RPM ratio (pull-down/input)) worked out at 5.41.
As for “GATGATTGTTCTCCCAGCTGATGAATTATGAGTATCGAGTAAACAAATTTTCCTAATCTTTCTGTTCAAGCGCCATCTAC”, the figure is 1.18; as for “GATGATTGTTCTCCCAGCTGATGAATTTGGACTATCGAGTAAACAAATTTTCCTAATCTTTCTGTTCAAGCGCCATCTAC”, 0.629; as for “GATGATTGTTCTCCCAGCTGATGAATTCCGCGATTCGAGTAAACAAATTTTCCTAATCTTTCTGTTCAAGCGCCATCTAC”, 1.22.
Consider “GATGATTGTTCTCCCAGCTGATGAATTCACACCTTCGAGTAAACAAATTTTCCTAATCTTTCTGTTCAAGCGCCATCTAC”, for which the binding signal (RPM ratio (pull-down/input)) is 0.352.
Turning to “GATGATTGTTCTCCCAGCTGATGAATTCACTGGCTCGAGTAAACAAATTTTCCTAATCTTTCTGTTCAAGCGCCATCTAC”, the binding signal (RPM ratio (pull-down/input)) amounted to 0.23.
The same measure for “GATGATTGTTCTCCCAGCTGATGAATTTATAACGTCGAGTAAACAAATTTTCCTAATCTTTCTGTTCAAGCGCCATCTAC”: 0.547; for “GATGATTGTTCTCCCAGCTGATGAATTCAGGGCCTCGAGTAAACAAATTTTCCTAATCTTTCTGTTCAAGCGCCATCTAC”: 0.404.
